The densities may have been worked out from excess volumes.
Assay: xn = mol fraction of the nth substance listed
Conditions: 100 kPa

COCCOCCOC + CCCC[n+]1ccn(C)c1.F[P-](F)(F)(F)(F)F
Conditions	mass density [kg/m3]
283.15 K, x2 = 0.0571	995.4
283.15 K, x2 = 0.1013	1024.9
283.15 K, x2 = 0.2923	1132
283.15 K, x2 = 0.39	1177.2
283.15 K, x2 = 0.492	1219.3
283.15 K, x2 = 0.6827	1287.2
283.15 K, x2 = 0.9711	1371.7
293.15 K, x2 = 0.057	985.7
293.15 K, x2 = 0.1842	1065.5
293.15 K, x2 = 0.1982	1073.5
293.15 K, x2 = 0.2963	1124.8
293.15 K, x2 = 0.3149	1133.8
293.15 K, x2 = 0.3913	1168.8
293.15 K, x2 = 0.5865	1246
293.15 K, x2 = 0.5999	1250.8
293.15 K, x2 = 0.6644	1272.8
293.15 K, x2 = 0.6814	1278.5
293.15 K, x2 = 0.7968	1314.5
293.15 K, x2 = 0.8399	1327.4
293.15 K, x2 = 0.892	1342.1
303.15 K, x2 = 0.0995	1005
303.15 K, x2 = 0.1154	1015.2
303.15 K, x2 = 0.1958	1062.8
303.15 K, x2 = 0.1973	1063.9
303.15 K, x2 = 0.2994	1117.2
303.15 K, x2 = 0.4896	1200.7
303.15 K, x2 = 0.5893	1238.2
303.15 K, x2 = 0.6652	1264.5
303.15 K, x2 = 0.6884	1272.3
303.15 K, x2 = 0.8299	1316.1
303.15 K, x2 = 0.8923	1334
303.15 K, x2 = 0.9352	1345.1
303.15 K, x2 = 0.9596	1352.5
313.15 K, x2 = 0.057	967.4
313.15 K, x2 = 0.0943	992.4
313.15 K, x2 = 0.1995	1056
313.15 K, x2 = 0.2856	1101.2
313.15 K, x2 = 0.4877	1191.1
313.15 K, x2 = 0.6781	1260.3
313.15 K, x2 = 0.7994	1298.6
313.15 K, x2 = 0.8941	1325.9
313.15 K, x2 = 0.9553	1342.4

— a compilation of properties of binary mixtures (doi:10.1016/j.molliq.2018.08.031)
